# The supplement of paper PMC11417369
# ± gives the standard deviation of the averaged measurements. The list shows a part of the results.
# Test system: PfAP2-G AP2 domain (GST-tagged)
# Assay: gcPBM binding intensity (ln(normalized median fluorescence intensity)); higher = stronger DNA binding
# How it was run: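 Using an Agilent 4 × 180k array, primer-extended double-stranded 36-bp intergenic genomic probes and negative controls were exposed for 1 h to GST-fused P. falciparum DNA-binding domains expressed in E. coli. Binding was carried out in 1× PBS with 1% milk, 0.2 mg/ml BSA, 0.5% salmon testes DNA and 0.03% Triton X-100, and protein was detected with Alexa488 anti-GST antibody and a 488 nm scan. Binding intensity is the highest Masliner-normalised natural-log median intensity across replicate spots of either probe orientation.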
row,Sequence,gcPBM binding intensity (ln)
1,AAAAAAAAAAAAAAAACACACATATATATTATTGTA [CACACA_site3979],10.2 ± 0.23
2,TTTTTTGTATTTTTCACACACTCTCTATCTCTCTCA [CACACA_site2095],9.94 ± 0.085
3,GAATATTACATGTATTGTACAGGTAATGTTAAAAAT [XGTACX_site8274],10.9 ± 0.66
4,ATTTATATTAAAAGTGTGCACTTTTTTTTTTTTTTT,10.7 ± 0.44
5,TAACATAAATCCATACGTACCTATATATATATAATA [XGTACX_site2626],10.8 ± 0.53
6,TTTTTTTTTTTGTTTTGTACATAAATTGCAACCAAT [XGTACX_site8949],11.1 ± 0.86
7,ATATATATATATATATGTACATATTCACTTATATTT [XGTACX_site5324],11.2 ± 0.63
8,TCATTCCATACTTTAACACACAAATATATTTAATCC [CACACA_site145],10.2 ± 0.18
9,TGTATTAATTTGTAATGTACACATATATGTATTATA [XGTACX_site4152],11.4 ± 0.9
10,GGTATAATTCATATAACACACATTTCAATGTTAAAA [CACACA_site2172],10 ± 0.29
11,CTTATATATACATATACACACACACCCATATATATA [CACACA_site8705],10.2 ± 0.2
12,TAAGTAAACTTTCTATGTACATATTTTCAAATATTA [XGTACX_site6260],11.2 ± 0.61
13,TTAACAAAATTTTTAACACACAAAAAAAAAAAAAAA [CACACA_site1828],9.73 ± 0.54
14,ATGTAGACAACATATGAACACACAAAATATTTTTTT [CACACA_site8955],10.12 ± 0.064
15,GATAAATAATAATAAGGTACACATAAAATATTCCTT [XGTACX_site2963],11.2 ± 0.69
16,CCAAAATTTATAAATTGTACATATTTTTAAATTCTT [XGTACX_site833],11 ± 0.59
17,ATAAAAGAATTAAATAATCAAAATGATTATTTTATA [CACACA_negctrl_site466],9.32 ± 0.16
18,AATACATACGGACACACACACACATATATATATATA [CACACA_site5884],11.3 ± 0.81
19,TGTTTAAAAATAATTTGTACATATATTTTATTTCAT [XGTACX_site1272],11 ± 0.61
20,ATAAAGAAATAAAGTTGTACATTATATATATATATA [XGTACX_site7729],11.1 ± 0.76
21,AATAATTTTTTAAACACACACACATATATATATATA [CACACA_site95],10.1 ± 0.23
22,ATTCATTATTCACCTTGTACACAAATGATTATCGTA [XGTACX_site455],11.3 ± 0.76

row,Sequence,gcPBM binding intensity (ln)
1,TCTTTTGTTTAACCTACATGCAGAATATAAGTCTTC [TGCATGCA_site99],10 ± 0.2
2,TGACCTTATGTGTTTTGAAGGGGAAAGGAAATGCGC [XGTACX_negctrl_site411],10 ± 0.13
3,TTTGTTCTTTTAATGTGTACATATACACTTGTAATA [XGTACX_site2635],11.3 ± 0.78
4,ATGTATGCAAAAATGGTGCATATTAAATGTATAACA [GTGCAC_site9722],10.2 ± 0.17
5,AAAAAAAAAAGAAACACACACATTTGTCTATAATAT [CACACA_site7063],10.04 ± 0.049
6,TAATATAAAAAAGGTACTACACGAAGGAATAAAAAT [XGTACX_site6872],11.1 ± 0.64
7,CAGAAATAGAGATACACACACACATATATTTATGTA [CACACA_site3968],9.895 ± 0.021
8,TATAAATATATGTATGCACACATTTTTTTTGGAAAA [CACACA_site1070],10.1 ± 0.18
9,TATAAAAATAGGATTTGTACATATAAAAAAGGAAAA [XGTACX_site8678],10.8 ± 0.51
10,TATATGCATAATAACTGTACACAAATTGGGGTTGAT [XGTACX_site459],11.6 ± 0.63
11,ATATAAATATATGTATGTACGCATGTATGTATCTAT [XGTACX_site3290],11.5 ± 0.95
12,TATATATATCTGTACACACACACATATAAATAAATA [CACACA_site4405],11.4 ± 1
13,GAGAAATGGGGACACACACACATATTATATATATAT [CACACA_site4943],11.5 ± 0.93
14,AAGCACAAAAAATACACACACAAAAAATAAAAAAAG [CACACA_site1840],10.1 ± 0.22
15,ATTATGTATACATAAACACACATATATATAAAAAAA [CACACA_site262],10.1 ± 0.18
16,ATGTATGTTTGTTATGCACACAAATGCATCTTATTT [CACACA_site8861],10.055 ± 0.007
17,ATAATGAACAATATTATATATAAAATATAATTTATA [GTGCAC_negctrl_site564],9.74 ± 0.21
18,AAATAATTTACTTAATGTACATATATATATATATAT [XGTACX_site8594],11.1 ± 0.51
19,ATATTTATTTGTTAGTGTACATACATATATATATAT [XGTACX_site1347],11.6 ± 1
20,ATTATATATATGTGCACACAAAAGATATATATATAT [CACACA_site5205],10.5 ± 0.33
21,AAAAATAAACAATATATAGTTATATATATATATATA [TGCATGCA_negctrl_site82],9.98 ± 0.68
22,TTTTAATTTATTTATGCACACATATATAATTACACA [CACACA_site8126],10.2 ± 0.23
